{"source": "the supplement of paper PMC9588766", "note": "Where “and” joins values, the source holds several entries; their conditions need not be identical. Equal values may be shown once. Where a name gives a salt, the structure may show the parent alone. ± gives the standard deviation of the averaged measurements. Over roughly 2,000 compounds, “cell viability relative to DMSO control (compound alone)” has its median near 0.98; the lowest 2% begin near 0.23. Some of the results follow."}
{"test_system": "PDC-DUC18828", "assay": "cell viability relative to DMSO control (compound alone) (fraction); PDC-DUC18828 is a patient-derived cholangiocarcinoma cell line; higher = less growth inhibition", "details": "1 µM; 72 h", "protocol": "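Selleck Bioactive library screen in the patient-derived FGFR2-G3BP2 fusion-positive ICC cell line PDC-DUC18828 (500 cells/well). Each compound was tested at 1 uM alone, in triplicate, for 72 h. Viability was read by CellTiter-Glo and normalised to plate DMSO controls.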"}
{"smiles": "Cc1ccccc1CN1C2=NCCN2C(=O)C2=C1CCN(Cc1ccccc1)C2", "note": "[TIC10 Analogue]", "cell viability": "1.02 ± 0.045"}
{"smiles": "Nc1cc(C(Cl)=C(Cl)Cl)c(S(N)(=O)=O)cc1S(N)(=O)=O", "note": "[Clorsulon]", "cell viability": "1 ± 0.051"}
{"smiles": "C[C@H](CCC(=O)O)[C@H]1CC[C@H]2[C@@H]3[C@H](O)C[C@@H]4C[C@H](O)CC[C@]4(C)[C@H]3CC[C@]12C", "note": "[Chenodeoxycholic Acid]", "cell viability": "0.982 ± 0.068"}
{"smiles": "CC(C)CC(CC(=O)NO)C(=O)N[C@@H](Cc1ccc2ccccc2c1)C(=O)N[C@@H](C)C(=O)NCCN", "note": "(some centres undefined)", "cell viability": "1.056 ± 0.0097"}
{"smiles": "C=CC(=O)Nc1cccc(Oc2nc(Nc3ccc(N4CCN(C)CC4)cc3OC)ncc2Cl)c1", "cell viability": "0.978 ± 0.055"}
{"smiles": "O=C(/C=C/c1ccc(O)c(O)c1)OCCc1ccccc1", "note": "[Caffeic Acid Phenethyl Ester]", "cell viability": "0.889 ± 0.013"}
{"smiles": "CC(=O)OCC(CCn1cnc2cnc(N)nc21)COC(C)=O", "note": "[Famciclovir]", "cell viability": "0.96 ± 0.047"}
{"smiles": "COc1ccc([C@@H]2CC(=O)c3c(O)cc(O[C@@H]4O[C@H](CO)[C@@H](O)[C@H](O)[C@H]4O[C@@H]4O[C@@H](C)[C@H](O)[C@@H](O)[C@H]4O)cc3O2)cc1O", "note": "[Neohesperidin]", "cell viability": "1.01 ± 0.041"}
{"smiles": "C[C@@H]1CCN(C(=O)CC#N)C[C@@H]1N(C)c1ncnc2[nH]ccc12", "cell viability": "0.988 and 0.964"}
{"smiles": "C#CC[C@H](c1nc2cc(Cl)ccc2c(=O)n1Nc1ccccc1)N(CCCN)C(=O)c1cccc(Cl)c1F", "cell viability": "0.342 ± 0.017"}
{"smiles": "CCOC(=O)Nc1cc(-c2ccc(C)c(NS(C)(=O)=O)c2)nn2c(C)nnc12", "note": "[Bromosporine]", "cell viability": "1.02 ± 0.056"}
{"smiles": "Cc1cc2c(F)c(Oc3ncnn4cc(OC[C@@H](C)OC(=O)[C@H](C)N)c(C)c34)ccc2[nH]1", "cell viability": "0.941 ± 0.024"}
{"smiles": "O=S(=O)(O)NC1CCCCC1", "note": "[Cyclamic  acid]", "cell viability": "0.925 ± 0.037"}
{"smiles": "COc1ccc([C@]2(C#N)CC[C@@H](C(=O)O)CC2)cc1OC1CCCC1", "note": "[Cilomilast]", "cell viability": "1.05 ± 0.03"}
{"smiles": "O=C(NCCO)c1cccc(-c2cc(Nc3ccc(OC(F)(F)F)cc3)ncn2)c1", "cell viability": "0.988 ± 0.072"}
{"smiles": "COCC[n+]1c2c(n(Cc3cnccn3)c1C)C(=O)c1ccccc1C2=O", "note": "[YM155 (Sepantronium Bromide)]", "cell viability": "0.0109 ± 0.00065"}
{"smiles": "O=c1c(-c2ccc(O)cc2)coc2c([C@@H]3O[C@H](CO)[C@@H](O)[C@H](O)[C@H]3O)c(O)ccc12", "note": "[Puerarin]", "cell viability": "0.896 ± 0.027"}
{"smiles": "Cc1cc(C)cc(C(=O)NOCCCCCC(=O)NO)c1", "cell viability": "0.619 ± 0.048"}
{"smiles": "Cc1cc([C@@H](C)Nc2ccccc2C(=O)O)c2nc(N3CCOCC3)cc(=O)n2c1", "cell viability": "0.945 ± 0.056"}
{"smiles": "CCOc1nc2cccc(C(=O)O)c2n1Cc1ccc(-c2ccccc2-c2noc(=O)[nH]2)cc1", "note": "[Azilsartan]", "cell viability": "0.9 ± 0.021"}
{"smiles": "COCCOC(=O)C1=C(C)NC(C)=C(C(=O)OC/C=C/c2ccccc2)C1c1cccc([N+](=O)[O-])c1", "note": "(centres undefined) [Cilnidipine]", "cell viability": "0.969 ± 0.053"}
{"smiles": "O=C(O)/C=C/c1ccc(Cn2ccnc2)cc1", "note": "[Ozagrel HCl]", "cell viability": "1.06 ± 0.062"}
{"smiles": "O=C(O)/C=C/c1ccc(Cn2ccnc2)cc1", "note": "[Ozagrel]", "cell viability": "0.959 ± 0.063"}
{"smiles": "COc1cc2nccc(Oc3ccc(NC(=O)C4(C(=O)Nc5ccc(F)cc5)CC4)cc3)c2cc1OC", "cell viability": "0.836 ± 0.024"}
{"smiles": "CNC(=O)c1cc(COc2nnc(Nc3ccc(Cl)cc3)c3ccoc23)ccn1", "note": "[Telatinib]", "cell viability": "1.06 ± 0.045"}
{"smiles": "CCCc1nc(C)c2c(=O)nc(-c3cc(S(=O)(=O)N4CCN(CC)CC4)ccc3OCC)[nH]n12", "note": "[Vardenafil HCl Trihydrate]", "cell viability": "0.994 ± 0.022"}
{"smiles": "Oc1ccc(OCc2ccccc2)cc1", "note": "[Monobenzone]", "cell viability": "0.945 ± 0.018"}
{"smiles": "C[C@H]1C[C@H]2[C@@H]3CCC4=CC(=O)C=C[C@]4(C)[C@@]3(F)[C@@H](O)C[C@]2(C)[C@@]1(O)C(=O)CO", "note": "[Betamethasone]", "cell viability": "0.987 ± 0.064"}
{"smiles": "CN(C)CCOc1ccc(/C(=C(/CCCl)c2ccccc2)c2ccccc2)cc1", "note": "[Toremifene Citrate]", "cell viability": "0.918 ± 0.043"}
{"smiles": "CC(C)(Cc1ccc2ccccc2c1)NC[C@@H](O)COc1cccc(Cl)c1C#N", "cell viability": "1 ± 0.069"}
{"smiles": "O=C(c1cn(Cc2cncn2Cc2ccc(Br)cc2)cc1-c1cccc2ccccc12)N1CCOCC1", "cell viability": "0.744 ± 0.062"}
{"smiles": "CCN1CCN(C(=O)N[C@@H](C(=O)N[C@@H]2C(=O)N3C(C(=O)O)=C(CSc4nnnn4C)CS[C@H]23)c2ccc(O)cc2)C(=O)C1=O", "note": "[Cefoperazone]", "cell viability": "1.09 ± 0.049"}
{"smiles": "Cc1ccc(Cl)c(Nc2ccccc2C(=O)O)c1Cl", "note": "[Meclofenamate Sodium]", "cell viability": "0.993 ± 0.025"}
{"smiles": "O=C(NCCO[N+](=O)[O-])c1cccnc1", "note": "[Nicorandil]", "cell viability": "0.948 ± 0.02"}
{"smiles": "COc1cc(O)c(CC=C(C)C)c(O)c1C(=O)/C=C/c1ccc(O)cc1", "note": "[Xanthohumol]", "cell viability": "0.925 ± 0.019"}
{"smiles": "Cc1cc(/N=N/c2ccc(S(=O)(=O)Nc3ccccn3)cc2)c(N)cc1O", "cell viability": "0.8812 ± 0.0058"}
{"smiles": "COc1ccccc1S(=O)(=O)Nc1ccc2c(c1)CN(C)C(=O)N2", "cell viability": "0.974 ± 0.027"}
{"smiles": "Cc1nnc(NS(=O)(=O)c2ccc(N)cc2)s1", "note": "[Sulfamethizole]", "cell viability": "0.987 ± 0.066"}
{"smiles": "FC(F)c1nc2ccccc2n1-c1nc(N2CCOCC2)nc(N2CCOCC2)n1", "cell viability": "1.04 ± 0.079"}
